# Test results as given in PubChem BioAssay AID1476 (National Center for Advancing Translational Sciences (NCATS), 2009).
# Hit rate of the full screen: of about 200,000 compounds, about 4,500 (2.2%) were called active. The shares of active, inactive and inconclusive entries below differ from those in the screen. The call rests on the fitted dose curve; in most records, active means well fitted inhibition curve with a large enough effect; inconclusive means small, poorly fitted or top-dose-only effect, or effect the other way; inactive means flat fitted curve, though single readings scatter. Where the call is inconclusive, the potency comes from a doubtful curve fit.
# Biological target: Cruzipain (Trypanosoma cruzi) (UniProt P25779)
# Experiment: qHTS Assay for Promiscuous and Specific Inhibitors of Cruzain (without detergent); further: nearly all actives have a fitted effect of over 40% in size;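 on max response, negative = inhibition: plate controls were enzyme without inhibitor for no effect and buffer without enzyme for full effect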
# Details: purified cruzain, Z-FR-AMC fluorescence, no detergent
# Method in brief: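 Detergent-free condition (0.00005% Triton X-100) in acetate buffer pH 5.5 with DTT. 1.5 nM enzyme and compound were pre-mixed 15 min, then 2 uM Z-FR-AMC substrate added; reaction progress from fluorescence change between first and third reads (60 s).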
# Potency means the concentration at half of the fitted maximal effect; tags describe the fitted curve by direction and shape.
# UniProt P25779, sequence (P25779 whole entry, looked up): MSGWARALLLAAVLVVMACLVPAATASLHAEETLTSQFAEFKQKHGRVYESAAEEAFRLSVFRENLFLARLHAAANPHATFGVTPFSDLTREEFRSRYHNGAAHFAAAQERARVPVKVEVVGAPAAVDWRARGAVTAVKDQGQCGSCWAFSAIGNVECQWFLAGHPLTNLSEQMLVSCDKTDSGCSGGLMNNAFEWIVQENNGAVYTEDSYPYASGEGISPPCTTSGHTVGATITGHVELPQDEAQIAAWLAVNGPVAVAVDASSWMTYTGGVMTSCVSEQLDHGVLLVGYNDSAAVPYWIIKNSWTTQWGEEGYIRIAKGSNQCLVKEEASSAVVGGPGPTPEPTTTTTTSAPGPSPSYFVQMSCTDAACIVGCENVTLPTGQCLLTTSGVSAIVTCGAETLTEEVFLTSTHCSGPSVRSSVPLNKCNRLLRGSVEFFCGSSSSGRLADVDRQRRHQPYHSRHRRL
Compound,Potency,"max response, negative = inhibition"
CC1CCCc2sc3nc(SCC(=O)c4ccc(Br)cc4)nc(N)c3c21 (stereo not given),active: 10 µM,
COc1ccc(-c2cc(C(F)(F)F)nc(SCCC(=O)N3CCCC3)n2)cc1,"inconclusive: 20 µM [activator, partial curve]",
C#CCn1c(=NC(=O)c2sc3ccccc3c2Cl)sc2cc(S(N)(=O)=O)ccc21,"inconclusive: 25.1 µM [inhibitor, single point]",
O=C(Nc1cccnc1)c1cc(-c2ccc(Br)cc2)on1,"inconclusive: 39.8 µM [inhibitor, single point]",
COc1cccc(N2CC(NC(=O)c3ccc(S(=O)(=O)N4CCOCC4)cc3)CC2=O)c1 (stereo not given),,inactive: 28.5%
O=C(Cc1ccccc1)Nc1sc2c(c1C(=O)Nc1ccc(Br)cc1)CCC2,"inconclusive: 5.01 µM [inhibitor, single point]",
O=C(Nc1ccc2c(c1)oc1ccccc12)c1ccc(Br)o1,"inconclusive: 31.6 µM [inhibitor, single point]",
Cc1ccc(CCNC(=O)CS(=O)Cc2nc(-c3ccccc3Cl)oc2C)cc1 (stereo not given),"inconclusive: 39.8 µM [activator, single point]",
CCOC(=O)COC(=O)c1ccc(O)cc1,,inactive: -1.63%
CCc1nnc(NC(=O)CSc2nc3c(c(=O)n2-c2ccccc2OC)SCC3)s1,active: 12.6 µM,
CC1C(=O)CCCCCCCCCC2C1(N1CCOCC1)CS2(=O)=O (stereo not given),"inconclusive: 39.8 µM [activator, single point]",
COc1ccccc1Nc1sc(C(=O)c2ccc(C)cc2C)c(N)c1S(=O)(=O)c1ccccc1,active: 7.94 µM,
O=C(Nc1ccc(N2CCN(C(=O)c3ccccc3)CC2)c(Cl)c1)c1ccc(Br)o1,"inconclusive: 31.6 µM [inhibitor, single point]",
CCOC(=O)C1C(=O)CC(C)(O)C(C(=O)OCC)C1c1cccc(OC(F)(F)C(F)F)c1 (stereo not given),"inconclusive: 31.6 µM [activator, partial curve]",
O=C(c1cnn(-c2ccc(F)cc2)c1-n1cccc1)N1CCN(c2ccc(F)cc2)CC1,"inconclusive: 31.6 µM [activator, single point]",
CCCCN1CC(O)=C(c2nc(-c3ccc(Cl)cc3)cs2)C1=N,"inconclusive: 39.8 µM [inhibitor, single point]",
CC(NC(=O)CSc1n[nH]c(-c2ccccc2Cl)n1)c1nc2ccccc2[nH]1 (stereo not given),,inactive: -0.478%
COC(=O)c1cc(NC(=O)C2(S(=O)(=O)c3ccc(Cl)cc3)CC2)cc(C(=O)OC)c1,"inconclusive: 31.6 µM [activator, single point]",
COc1ccccc1NC(=S)NC(=O)c1ccc(-c2ccc(Cl)cc2)o1,"inconclusive: 31.6 µM [inhibitor, single point]",
Cc1ccsc1CN1CCc2nc(Nc3ccccc3)ncc2C1,"inconclusive: 15.8 µM [inhibitor, partial curve, poor fit]",
O=C(Cn1ccc2cc(S(=O)(=O)N3CCCCC3)ccc21)NCCc1ccccc1Cl,"inconclusive: 25.1 µM [inhibitor, single point]",
COc1ccc(NC(=O)CCCC2CCCCC2)cc1S(=O)(=O)N1CCCCC1,"inconclusive: 39.8 µM [activator, single point]",

Compound,Potency,"max response, negative = inhibition"
CCOc1ccc(NC(=O)c2ccc3[nH]c(C)c(C)c3c2)cc1,,inactive: -18.6%
Cc1nc2ccc(S(=O)(=O)N(CC(=O)Nc3ccc(F)cc3F)Cc3ccccc3)cc2s1,"inconclusive: 39.8 µM [activator, single point]",
Cc1sc2ncnc(OCC(=O)N3CCN(S(=O)(=O)c4ccc(Cl)cc4)CC3)c2c1C,"inconclusive: 39.8 µM [inhibitor, single point]",
CCC(C)NC(=O)C1CCN(S(=O)(=O)c2ccc3c(c2)CCCN3C(C)=O)CC1 (stereo not given),,inactive: 2%
COCCCn1c(SCC(=O)Nc2ccc(C(C)=O)cc2)nc2ccccc2c1=O,"inconclusive: 31.6 µM [activator, single point]",
CCn1cc(C(=O)N2CCN(c3ccc(C)cc3)C(C)C2)c(=O)c2cc(S(=O)(=O)N3CCCC3)ccc21 (stereo not given),"inconclusive: 39.8 µM [activator, single point]",
COc1ccc(C2C(C(C)=O)=C(C)N=c3s/c(=C/c4ccc5c(c4)OCO5)c(=O)n32)cc1 (stereo not given),active: 10 µM,
CCOC(=O)c1ccc(NC(=O)N2CCc3ccccc32)cc1,"inconclusive: 31.6 µM [activator, single point]",
CCc1ccccc1NC(=O)C(=O)NCCCN1CCOCC1,,inactive: -3.9%
COc1cccc(C2NC(=O)c3sc(=S)n(-c4ccccc4)c3N2)c1 (stereo not given),"inconclusive: 31.6 µM [inhibitor, single point]",
CC(=O)Nc1ccc(NC(=O)CCCn2nc(C)c3sc4ccccc4c3c2=O)cc1,"inconclusive: 6.31 µM [inhibitor, single point]",
COc1ccc(CCNC(=O)Cn2c(=O)n(Cc3ccco3)c(=O)c3ccc(Cl)cc32)cc1OC,"inconclusive: 39.8 µM [activator, single point]",
CCOc1ccc(C(=O)Nc2cccc(-c3nc4cccnc4o3)c2)cc1Cl,"inconclusive: 39.8 µM [activator, single point]",
CCOC(=O)N1CCN(C(=O)c2cc(-c3ccc(F)cc3)[nH]c2C)CC1,"inconclusive: 39.8 µM [activator, single point]",
COc1cc(OC)c(C(=O)CCCCN2CCC3(CC2)NC(=O)NC3=O)cc1NS(=O)(=O)c1ccc(C(F)(F)F)cc1,,inactive: 3.78%
CCSC1=NC(C)(C)C=C(/C=C/c2ccc(Cl)cc2Cl)N1,"inconclusive: 2.51 µM [inhibitor, partial curve]",
COc1ccc(S(=O)(=O)n2ccc(-c3cnc(-c4ccccc4)s3)n2)cc1,"inconclusive: 39.8 µM [inhibitor, single point]",
NC(=O)[C@H](Cc1cc2ccccc2s1)NC(=O)[C@@H]1CC2(CC(c3cccc(NC(=O)[C@@H]4CCC(=O)N4)c3)=NO2)CN1C(=O)c1ccccc1 (stereo not given in full),"inconclusive: 20 µM [activator, partial curve]",
Cc1ccc(-n2ncc(C(=O)NCc3ccco3)c2C2CCN(C(=O)OC(C)(C)C)CC2)c(C)c1,"inconclusive: 39.8 µM [activator, single point]",
CCOc1ccc(CCNS(=O)(=O)c2cc(Br)cc3c2N(C(C)=O)CC3)cc1OCC,,inactive: 16.3%
CCc1nnc(NC(=O)c2ccc(S(=O)(=O)N3CCN(Cc4ccccc4)CC3)cc2)s1,"inconclusive: 39.8 µM [inhibitor, single point]",
c1ccc(-c2nnc(CSc3nc4ccccc4[nH]3)o2)cc1,active: 12.6 µM,

Compound,Potency,"max response, negative = inhibition"
CCC(Sc1nc2ccccc2c(=O)n1CCc1ccc(OC)c(OC)c1)C(=O)N(CC)CC (stereo not given),"inconclusive: 25.1 µM [activator, partial curve]",
CCc1cccc(C)c1NC(=S)NCc1ccc2c(c1)cc(C)n2C,"inconclusive: 31.6 µM [inhibitor, single point]",
C=C(C)CNC(=S)N/N=C\c1ccc2c(c1)OCO2,"inconclusive: 39.8 µM [inhibitor, single point]",
COc1ccc(NC(=O)CSc2nnc(-c3nonc3NC(C)=O)n2-c2ccccc2)cc1,"inconclusive: 31.6 µM [activator, single point]",
CCOC(=O)c1c(NC(=O)c2ccc(S(=O)(=O)N(CC(C)C)CC(C)C)cc2)sc2c1CCN(C(=O)OCC)C2,,inactive: -8.99%
O=C(Nc1ccc(OC(F)(F)F)cc1)c1cc2ccccn2n1,active: 25.1 µM,
O=C(Nc1ccc(F)cc1)c1sc2cc(C(F)(F)F)cnc2c1-c1cccs1,active: 25.1 µM,
O=C(Nc1ccc2c(c1)CCCN2C(=O)c1cccs1)c1ccccc1Cl,,inactive: 3.68%
Cc1cccc(Cn2c(N3CCN(c4ccccc4)CC3)nc3c2c(=O)n(C)c(=O)n3C)c1,"inconclusive: 31.6 µM [activator, single point]",
CCn1nc(C)cc1Nc1ccccc1,"inconclusive: 3.98 µM [inhibitor, single point]",
COCCNC(=O)c1cnc2sc(N3CCC(C)CC3)nn2c1=O,,inactive: -6.58%
Cc1nc2cc(-c3cccc(F)c3)nn2c(C)c1CCC(=O)N1CCC2(CC1)OCCO2,"inconclusive: 25.1 µM [activator, partial curve]",
COc1ccc(Cl)cc1NC(=O)c1nn(-c2ccc(C)cc2)c(=O)n(C)c1=O,,inactive: 1.98%
CCOC(=O)c1c(C)[nH]c(C)c1S(=O)(=O)N1CCCC(C(=O)N2CCN(c3cccc(C)c3C)CC2)C1 (stereo not given),,inactive: 23.1%
NC(=O)CSc1nc2ccccc2n1Cc1ccccc1,,inactive: -3.43%
O=C(Cn1c(=O)nc(-c2ccccc2)c2cc(Cl)ccc21)N1CCN(c2ccc(F)cc2)CC1,,inactive: -3.57%
CCOC(=O)c1c(C)c(-c2ccccc2)n(CC(=O)NC2CCCCC2)c1C,,inactive: 5.26%
Cc1ccc(N2CCOCC2)c2c1C(=O)c1ccccc1C2=O,"inconclusive: 39.8 µM [activator, single point]",
Cc1ccc2c(c1)C1CCCC3C1N2CC(=O)N3Cc1ccccc1 (stereo not given),active: 12.6 µM,
CC(=O)CSc1nnc2[nH]c(=O)cc(N)n12,"inconclusive: 5.01 µM [activator, single point]",
O=C(CNC(=O)/C(=C\c1ccc(Br)cc1)NC(=O)c1ccccc1)OCc1ccccc1,"inconclusive: 20 µM [inhibitor, partial curve]",
